Results from the supplement of paper PMC11417369.
The other results are listed elsewhere or left out.

These sequences were tested on PfAP2-HC AP2 domain (GST-tagged) (assay: gcPBM binding intensity (ln(normalized median fluorescence intensity)); higher = stronger DNA binding).
Outline: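 Alexa488 anti-GST antibody, scanned at 488 nm, detected GST-tagged P. falciparum DNA-binding domains that had been expressed in E. coli and incubated for 1 h on an Agilent 4 × 180k array. The array carried primer-extended double-stranded 36-bp intergenic genomic probes and negative controls. Binding intensity is the highest Masliner-normalised natural-log median intensity across replicate spots of either orientation of each probe.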

Sequence	gcPBM binding intensity (ln)
ATAATATTATTATAATGTACATATTTCGATATAAAT [XGTACX_site8808]	9.55
AAAAAAATATATATTACACACATATATACCTATATA [CACACA_site5688]	9.88
ATATATATTAATAGGTGTACATATAAAGTGTTATGT [XGTACX_site5464]	9.79
TATTGAAGTTATAAAGTGCAGATAAATATGAGTTAT [GTGCAC_site9945]	9.79
ACAAAAAATAATCAAAATGTATATATATAATATAAT [XGTACX_negctrl_site593]	9.8
AAATGCCATATAATTTTTCTTAAACATAATTGTATA [CACACA_negctrl_site1665]	9.49
ATTGTCTTCTCATATACACACTTTTATGACTATCTT [CACACA_site5696]	9.97
TGTGTAATTATATATAAGGAGAAAGAATTCATTTTT [CACACA_negctrl_site670]	9.56
ATTATCCATGCATTTACACACACACCCAAAAAAATT [CACACA_site4101]	10.3
AAAGGGGCATATATATGTACATATTATATATTTTGA [XGTACX_site2436]	9.56
TTATATATAAACATAAAAAGAAATATATTATGTATA [CACACA_negctrl_site667]	9.53
AAAGTCTCATTAAAATGTACAAAATTTTCAGCTGTA [XGTACX_site6296]	9.45
TATGTGAATATAATCACACACAATACGGAAACCCAC [CACACA_site2725]	9.99
TAATTTTTAATTGTAGCATGCAGTATTTTTAAATAT [TGCATGCA_site140]	9.37
AATACATTGTCAAATTGTACAAATTATAGAACTATT [XGTACX_site2222]	9.59
TGTTTTTATATATATGCACACAATGTACAAGTATAC [CACACA_site3529]	9.86
AATATATATATATATACACACACACCGATATATATA [CACACA_site8158]	11.2
TAACAATTAATAAAAGGTACACTTGAATATGCACCA [XGTACX_site2717]	9.42
TTAATATTTAGACATGCATGCTAATTACTATATATA [TGCATGCA_site27]	9.8

Sequence	gcPBM binding intensity (ln)
AATTTTAAGAGCTATACATGCACTTCATAAAAAGTG [TGCATGCA_site180]	9.41
ATAATAAAAAAAAATGCACACATATATATATATATA [CACACA_site8766]	9.8
GTAGAGCATAATAAAACACACACATACATACATATA [CACACA_site8217]	10.4
ATGGACATCTATTGTTGTACACATTTTCCCATAACA [XGTACX_site5429]	9.62
TTTCAAAAATGAGTTACACACACACGGATATAAATA [CACACA_site7116]	10
GAATATAAAATATATATATATATATATATATATATA [GTGCAC_negctrl_site425]	9.4
TTATAAATATAAAAATGTACAGAAAAAAAAAATAAA [XGTACX_site863]	9.76
ATAGAACTATATTGCACACATAATATATATATATAT [CACACA_site3189]	9.91
GTAAAAAATATGACAAGTACAAGAAAAGAAAAAAGT [XGTACX_site7906]	10
AAAAGATTTATACATACACACATATTATATTCACAT [CACACA_site3713]	10
TTATAATATATATACAGTACATATATAAAATAATAT [XGTACX_site5917]	9.58
TTTTCTTGGTTCAGTGTGCACTTATATATATATATA	10
TAATATAAAGAAAAGGAACACACAAATATATATATA [CACACA_site8049]	9.83
TTATTTTATAATAAAAGTACACAAAAAAAAAAAAAA [XGTACX_site7668]	9.36
ATATATATAATATGCGGTACACATTAATTAAATCAT [XGTACX_site5702]	9.82
TTATTTCTCTTTTCAGTGCATTTTATAACAAAAAAA [GTGCAC_site9930]	9.2
TATTTATTGTGATACTTATATTACTTAATGATTAAA [CACACA_negctrl_site676]	9.41
TAATTATGCAGACACACACACACACCCAACTAAAAA [CACACA_site2569]	10.4
CTATTTCATGGACACACACACACAAACAAACATATA [CACACA_site4696]	11.1

Sequence	gcPBM binding intensity (ln)
ATATATTATATAAAGTGTACAAAAAAAATATATAAA [XGTACX_site8065]	9.88
TTATTGCATTGTTTTTATAAAAAAAAAAAAAAAATT [XGTACX_negctrl_site104]	9.48
ATATATATTTTATTCACACATAAGATTATAAAACAT [CACACA_site5369]	9.53
TATGATATAATTATGTGTACACAATTTTTTTTTTTT [XGTACX_site1084]	9.74
TGTGTTCAGTATTGCACACACACAACAAAATAAAAA [CACACA_site8017]	10.3
ATTAATAAGAAATATACACACATGGATAAATACATA [CACACA_site1872]	9.91
TTTCTTGCTACATGAAGTACACTTTCTATGACTCGT [XGTACX_site5583]	9.55
TTATTATAAATGTTTTGTACGTACATCCGAAAATAA [XGTACX_site2175]	9.48
TATAATCATATTAAGGGTACATATGTGTAAATATTT [XGTACX_site6018]	9.75
CTTTAAAACCGGTACTGTACACATAGTATTATTATC [XGTACX_site2602]	9.73
ATAATAATAATATAACCAAGGAAATATAATATTTGT [XGTACX_negctrl_site485]	9.7
CGATACTTTAGGTGTACACAAATATACATGAATGAG [CACACA_site5189]	9.79
AAAAAAAAGGAAATAACACACATGTATTTATTTATA [CACACA_site4966]	9.73
AAATTTGCTTTTATTTTACACACTTGCTCCTGTTGT [CACACA_site8276]	10.6
ATAATATTTTAATGCACACACACAAAAAAAAAAAAA [CACACA_site2891]	10.1
AAACAATCTAAAAGTAGTACAATAAAAATATATATA [XGTACX_site5607]	9.69
AAAAAAAAATTATTCACACATATATATATATATATA [CACACA_site5579]	9.65
GAACCATAAGGAACGACACACAAAGATAAATAAATA [CACACA_site3472]	9.87
